Measurements as given in patent EP1114151B1, “G PROTEIN-COUPLED RECEPTOR ANTAGONISTS” (Hopital Sainte-Justine, priority 1998, dated 2011).
At least one peptide structure holds a part that was inferred or is arguable (an end, a ring closure or a residue). Some entries repeat one wording, which the source may state once for all of them. Square brackets hold non-standard residues; d marks the D form. Peptide text beside a SMILES is read from it.

System: FP receptor
Experiment: porcine eyecup model of ex vivo vasomotricity assay, PGF2α-induced constriction of retinal microvessels
Conditions: for change of inhibitory activity relative to the parent peptide (in words): peptides at 100 µM, compared with PCP-13 (PCP-13 and PCP-11 with PCP-8, PCP-12 with PCP-10); for %Vasomotor response (of constriction): 100 µM peptide added 30 min before 10^-7 M PGF2α, relative to maximal constriction in the absence of peptide; for % inhibition of maximal max. response: 100 µM peptide, 10^-7 M PGF2α, calculated as 100 - per cent vasomotor response
From the text: In order to see if the peptides could inhibit FP function using an ex vivo model, we chose porcine eyecup model, an ex vivo assay of vascular constriction in porcine retinas which we previously described and validated (Li et al., 1996 J. Pharmacol. Expt. Therapeut. 278: 370-377; Li et al., 1997 Am. J. Physiol. 273: R1283-90; Abran et al., 1997 Am. J. Physiol. 272: R995-1001). Since FP receptor densities in newborn vasculature are minimal due to down regulation by high levels of circulating prostaglandins in the perinatal period, the newborn pigs were treated with a prostaglandin synthetase blocker, ibuprofen (30 mg/Kg of bodyweight/ 8 h for 24 h) to increase the density of the receptors as well as their vasomotor effects. By inhibiting circulating prostaglandins; we were able to show potent inhibition of FP receptor-mediated second messenger synthesis as well as FP-mediated vascular constriction in this eyecup model.
The preparations were allowed to stabilize for 30 min.
Vascular diameter was recorded before and 10 min following the topical application of the agent.
Small letters indicate L-amino acids and capital letters indicate D- amino acids. I = isoleucine; L= leucine; G =glycine; H=histidine, R=Arginine; D=Aspartic acid; Y=Tyrosine; […]; A-Alanine; W= Tryptophan; E-Glutamic acid; F= Phenyl alanine; Q=Glutamine; N=Aspargine; P=Proline; S=Serine; X=Cyclohexyl alanine.

| Structure (SMILES) | change of inhibitory activity relative to the parent peptide (in words) | %Vasomotor response (of constriction) | % inhibition of maximal max. response |
| --- | --- | --- | --- |
| CC[C@@H](C)[C@@H](N)C(=O)N[C@H](CC(C)C)C(=O)NCC(=O)N[C@H](Cc1c[nH]cn1)C(=O)N[C@H](CCCNC(=N)N)C(=O)N[C@H](CC(=O)O)C(=O)N[C@H](CCC(=O)O)C(=O)N[C@H](CCCCN)C(=O)O [PCP-13.10] (H-[dI][dL]G[dH][dR][dD][dE][dK]-OH) | completely abolished the inhibitory potency |  |  |
| CC[C@@H](C)[C@@H](N)C(=O)N[C@H](CC(C)C)C(=O)NCC(=O)N[C@H](Cc1c[nH]cn1)C(=O)N[C@H](CCC(N)=O)C(=O)N[C@H](CC(=O)O)C(=O)N[C@H](Cc1ccc(O)cc1)C(=O)N[C@H](CCCCN)C(=O)O [PCP-13.18] | affected the activity of PCP-13 moderately | 30.0% | 70.0% |
| CC[C@@H](C)[C@@H](N)C(=O)N[C@H](CC(C)C)C(=O)NCC(=O)N[C@H](Cc1c[nH]cn1)C(=O)N[C@H](CCCNC(=N)N)C(=O)N[C@H](CC(=O)O)C(=O)N[C@H](Cc1ccc(O)cc1)C(=O)N[C@H](CCCCN)C(N)=O [PCP-13.21] | moderate gain of activity | 46.2% | 53.8% |
| CC[C@@H](C)[C@@H](N)C(=O)N[C@H](CC(C)C)C(=O)NCC(=O)N[C@H](Cc1c[nH]c2ccccc12)C(=O)N[C@H](CCCNC(=N)N)C(=O)N[C@H](CC(=O)O)C(=O)N[C@H](Cc1ccc(O)cc1)C(=O)N[C@H](CCCCN)C(=O)O [PCP-13.22] | did not result in significant reduction of peptide inhibitory potency | 16.6% | 83.4% |
| CC[C@@H](C)[C@@H](N)C(=O)N[C@H](CC(C)C)C(=O)NCC(=O)N[C@H](Cc1c[nH]cn1)C(=O)N[C@H](CCCNC(=N)N)C(=O)N[C@H](CC(=O)O)C(=O)N[C@H](Cc1ccc(O)cc1)C(N)=O [PCP-13.20, ILGHRDY-amide] | moderate gain of activity | 49.6% | 50.4% |

The remaining lines, values ahead:

| change of inhibitory activity relative to the parent peptide (in words) | %Vasomotor response (of constriction) | % inhibition of maximal max. response | Structure (SMILES) |
| --- | --- | --- | --- |
| moderate loss of activity | 40.3% | 59.7% | CC[C@@H](C)[C@@H](N)C(=O)N[C@H](CC(C)C)C(=O)NCC(=O)N[C@H](Cc1c[nH]cn1)C(=O)N[C@H](CCCNC(=N)N)C(=O)N[C@H](CC(N)=O)C(=O)N[C@H](Cc1ccc(O)cc1)C(=O)N[C@H](CCCCN)C(=O)O [PCP-13.14] |
| complete loss of activity |  |  | CC[C@@H](C)[C@@H](N)C(=O)N[C@H](CC(C)C)C(=O)NCC(=O)N[C@H](Cc1c[nH]cn1)C(=O)N[C@H](CCCNC(=N)N)C(=O)N[C@H](CC(=O)O)C(=O)N[C@H](Cc1ccc(O)cc1)C(=O)N[C@H](Cc1c[nH]c2ccccc12)C(=O)O [PCP-13.9] (H-[dI][dL]G[dH][dR][dD][dY][dW]-OH) |
| loss of activity |  |  | CC[C@@H](C)[C@@H](N)C(=O)N[C@H](CC(C)C)C(=O)N[C@H](Cc1c[nH]cn1)C(=O)N[C@H](CCCNC(=N)N)C(=O)N[C@H](CC(=O)O)C(=O)N[C@H](Cc1ccc(O)cc1)C(=O)N[C@H](CCCCN)C(=O)O [PCP-13.17] (H-[dI][dL][dH][dR][dD][dY][dK]-OH) |
| does not change the activity of PCP-13 | 23.8% | 76.2% | CC[C@@H](C)[C@@H](N)C(=O)N[C@H](CC(C)C)C(=O)N[C@H](C)C(=O)N[C@H](Cc1c[nH]cn1)C(=O)N[C@H](CCCNC(=N)N)C(=O)N[C@H](CC(=O)O)C(=O)N[C@H](Cc1ccc(O)cc1)C(=O)N[C@H](CCCCN)C(=O)O [PCP-13.7] |
